Source: EP4692072A1, “PHOTOCHROMIC COMPOUND, PROPARGYL ALCOHOL COMPOUND, CURABLE COMPOSITION, OPTICAL ARTICLE, LENS, AND SPECTACLES” (TOKUYAMA CORPORATION, priority 2023, dated 2024)
At least one read-out could not be matched to a standard name with certainty.

Assays:
Assay type in all cases: physicochemical
[1] = Photochromic properties of photochromic cured product prepared by kneading method; settings: 1 mm cured product, 0.106 mmol per 100 g monomer, after 300 seconds irradiation at 23°C
Protocol: (§1) • [1] Maximum Absorption Wavelength (λmax): The maximum absorption wavelength after color development, measured using a spectrophotometer (instantaneous multichannel photodetector MCPD3000) manufactured by Otsuka Electronics Co., Ltd. was used as an indicator for the color tone during the color development. • [2] 23°C Color Optical Density (A23): A difference between an absorbancy measured after light irradiation at 23°C for 300 seconds {ε(300)} and an absorbancy without light irradiation ε(0) at the maximum absorption wavelength was used as an indicator for the color optical density. […] 23°C color fading half-life [τ1/2 (sec.)]: A time required for the absorbancy of the sample at the maximum absorption wavelength to decrease to 1/2 of {ε(300)-ε(0)} when the light irradiation was terminated after the light irradiation at 23°C for 300 seconds, was used as an indicator for the color fading speed. The shorter this time, the higher the color fading speed. • [4] Residual rate (A120/A0×100): The obtained photochromic plastic lens was subjected to accelerated deterioration using a xenon weather meter X25 manufactured by Suga Test Instruments Co., Ltd. for 120 hours. Subsequently, the color optical density was evaluated before and after the test, then a color optical density before the test (A0) and a color optical density after the test (A120) were measured, and a ratio (A120/A0) was defined as a residual rate. The residual rate was used as an indicator for a color developing durability. The higher the residual rate, the higher the color developing durability. The results of Examples 26, 50, and Comparative Examples 1 to 8 are summarized in Table 1, and the results of Examples 27 to 49 are summarized in Tables 2 and 3.
First, the photochromic compound obtained in Example 1, additives, and a polymerizable compound were mixed to obtain a curable composition.
As the polymerizable compound, a combination of the following polymerizable monomers was used. • 1,3-bis(isocyanatomethyl)cyclohexane: 36.7 parts by mass Pentaerythritol tetrakis(3-mercaptopropionate): 39.4 parts by mass • Polyoxyethylene polyoxypropylene lauryl ether (Wonder Surf 140 manufactured by Aoki Oil Industrial Co., Ltd.): 17.4 parts by mass • 1-decanethiol: 2.8 parts by mass • RX-1 adjusted according to the method described in Patent Document 13: 3.8 parts by mass
Note that the photochromic compound was added to the curable composition so that the amount of the photochromic compound was 0.106 mmol based on 100 g of the total amount of the polymerizable monomer. The following additives were used: Dimethyltin dichloride • : 0.05 part by mass • Irganox 245: 0.1 part by mass • 2-ethylhexyl 4-methoxycinnamate: 0.6 part by mass
The prepared curable composition was thoroughly defoamed, then injected into a glass mold having a 1 mm gap, and polymerized by cast polymerization. The polymerization was carried out in an air furnace while gradually raising the temperature from 27°C to 120°C over 18 hours. After the polymerization, the cured product was removed from the glass mold to obtain a photochromic cured product having a thickness of 1 mm. The obtained photochromic cured product was evaluated in the same manner as in Example 26.
(Examples 85 to 99, and Comparative Example 14 to 18) Photochromic cured products were prepared using photochromic compounds presented in Tables 6 and 7 in the same manner as in Example 84. The results of Examples 84 and 85 and Comparative Examples 14 to 18 are summarized in Table 6, and the results of Examples 86 to 99 are summarized in Table 7.

[2] = Photochromic properties of photochromic laminate (plastic lens) prepared by coating method; settings: 0.25 mmol per 100 g monomers, after 300 seconds irradiation at 23°C, at the maximum absorption wavelength of the same row
From the text: First, the photochromic compound obtained in Example 1, a photoinitiator, and a polymerizable compound were mixed to obtain a curable composition.
Polyethylene glycol dimethacrylate (average molecular weight: 736): 42 parts by mass • Polyethylene glycol dimethacrylate (average molecular weight: 536): 12 parts by mass • Trimethylolpropane trimethacrylate: 38 parts by mass γ-methacryloyloxypropyl trimethoxysilane: 2 parts by mass Glycidyl methacrylate: 1 part by mass
Note that the photochromic compound was added to the curable composition so that the amount of the photochromic compound was 0.25 mmol based on 100 g of the total amount of the radical-polymerizable monomers.
Phenylbis(2,4,6-trimethylbenzoyl)phosphine oxide (photoinitiator: Omnirad 819): 0.3 parts by mass Ethylene bis(oxyethylene) bis[3-(5-tert-butyl-4-hydroxy-m-tolyl)propionate] (stabilizer, Irganox 245): 1 part by mass Bis(1,2,2,6,6-pentamethyl-4-piperidyl) sebacate: 3 parts by mass Leveling agent (L7001) manufactured by Dow Corning Toray Co.,Ltd.: 0.1 part by mass
First, a thiourethane-based plastic lens having a central thickness of 2 mm and a refractive index of 1.60 was prepared as the optical substrate. Note that this thiourethane-based plastic lens was pre-treated by alkaline etching with a 10% sodium hydroxide aqueous solution at 50°C for 5 minutes, followed by sufficient washing with distilled water.
A surface of the above-described plastic lens was coated with a moisture-curable primer (product name: TR-SC-P, manufactured by Tokuyama Corporation) at a rotation frequency of 70 rpm for 15 seconds, followed by 1000 rpm for 10 seconds, using a spin coater (1H-DX2, manufactured by MIKASA CO., LTD), Subsequently, about 2 g of the photochromic curable composition obtained above was spin-coated at a rotation frequency of 60 rpm for 40 seconds, followed by 600 rpm for 10 to 20 seconds, to form a photochromic coating layer with a film thickness of 40 µm.
The lens with the surface coated with the photochromic curable composition (photochromic coating layer) was irradiated with light using a metal halide lamp with an output power of 200 mW/cm^2 in a nitrogen gas atmosphere for 90 seconds to cure the coating film. Subsequently, the lens was further heated at 110°C for 1 hour to prepare a photochromic laminate having a photochromic layer.
In the same manner as in Example 26, photochromic laminates were prepared using the photochromic compounds obtained in Examples 2 to 25.
as §1, with “The higher the residual rate, the higher the color developing durability. The results of Examples 26, 50, and Comparative Examples 1 to 8 are summarized in Table 1, and the results of Examples 27 to 49 are summarized in Tables 2 and 3.” left out

[3] = Photochromic properties of binder sheet (photochromic layer prepared by binder method); settings: 0.25 mmol per 100 parts by mass resin, after 300 seconds irradiation at 23°C
Protocol: as §1
A binder sheet was prepared using the following method. The binder sheet consisted of a first optical sheet, a first adhesive layer, a photochromic layer, a second adhesive layer, and a second optical sheet, which are laminated in this order. The first optical sheet and the second optical sheet were made of a polycarbonate sheet with a thickness of 400 µm.
A 2L four-necked flask equipped with agitation blades, a cooling tube, a thermometer, and a nitrogen gas introducing tube was charged with 315 parts by mass of polycarbonate diol having a number-average molecular weight of 1000, 100 parts by mass of isophorone diisocyanate, and 72 parts by mass of toluene, and the mixture was reacted under nitrogen atmosphere at 100°C for 7 hours to synthesize a urethane prepolymer having an isocyanate group on its terminal. After completion of the urethane prepolymer reaction, the reaction liquid was cooled to approximately 0°C, then dissolved in 205 parts by mass of t-butyl alcohol and 382 parts by mass of diethyl ketone, and then the liquid temperature was maintained at 0°C. Subsequently, into this reaction liquid, a mixture of 21.3 parts by mass of bis-(4-aminocyclohexyl)methane as a chain extender and 20 parts by mass of diethyl ketone was dripped over within 30 minutes, and the mixture was reacted at 0°C for 1 hour. Then, into the mixture, 8.1 parts by mass of 1,2,2,6,6-pentamethyl-4-aminopiperidine was dripped, and the mixture was reacted at 0°C for 1 hour to obtain a diethyl ketone solution of a terminal non-reactive urethaneurea resin.
To 100 parts by mass of the obtained terminal non-reactive urethaneurea resin solution, the photochromic compound in Example 1 (represented by formula (28) above), 6.3 parts by mass of 4,4'-methylenebis(cyclohexyl isocyanate) isomer mixture (polyisocyanate compound), furthermore 0.4 part by mass of ethylene bis(oxyethylene)bis[3-(5-tert-butyl-4-hydroxy-m-tolyl)propionate] as an antioxidant, and 0.06 part by mass of DOW CORNING TORAY L-7001 as a surfactant were added, and the mixture was stirred and mixed at room temperature to obtain a photochromic layer forming composition. […]

SMILES | 23°C color fading half-life [1] [min] | 23°C color fading half-life [2] [min] | 23°C color fading half-life [3] [min] | also measured
COCCN(c1ccccc1)c1ccc(C2(c3ccc4c(c3)OCCO4)C=Cc3c4c(c5cc6c(cc5c3O2)SC(C)(C)O6)-c2ccccc2C42CCC3(CCCCC3)CC2)cc1 (stereo not drawn) [Example 14] | 1.2 | 0.867 | – | –
COc1ccc(C2(c3ccc(N(C)c4ccccc4)cc3)C=Cc3c4c(c5cc6c(cc5c3O2)SC(C)(C)S6)-c2ccc(-c3ccc(F)c(F)c3F)cc2C42CCCCCCCCCCC2)cc1 (stereo not drawn) [Example 52] | – | 0.75 | – | –
COCCOCCOCCOCCC1(CCOCCOCCOCCOC)c2cc(C(F)(F)F)ccc2-c2c1c1c(c3cc(OC)c(OC)cc23)OC(c2ccc(OC)cc2)(c2ccc(N(C)c3ccccc3)cc2)C=C1 (stereo not drawn) [Example 51] | 0.5 | 0.333 | – | –
COCCC1(CCOC)c2ccccc2-c2c1c1c(c3cc(OC)c(-c4ccc(N(c5ccccc5)c5ccccc5)cc4)cc23)OC(c2ccc(Oc3ccccc3)cc2)(c2ccc(N(C)c3ccccc3)cc2)C=C1 (stereo not drawn) [Example 23] | – | 0.8 | 0.867 | –
COc1ccc(C2(c3ccc(N(C)c4ccccc4)cc3)C=Cc3c4c(c5cc(-c6ccc(N7CCOCC7)cc6)c(OC)cc5c3O2)-c2ccccc2C4(C)C)cc1 (stereo not drawn) [Example 1] | 1.87 | – | 1.5 | 23°C color fading half-life ([3]; listed as Formula (37)): 1.52 min
CCCc1ccc(C2(c3ccc(N(C)c4ccccc4)cc3)C=Cc3c4c(c5cc(-c6ccc(C)cc6)c(C)cc5c3O2)-c2ccccc2C4(CCOC)CCOC)cc1 (stereo not drawn) [Example 18] | – | 0.8 | – | –
CCC1(CC)CCC2(CC1)c1ccccc1-c1c2c2c(c3cc(OC)c(N(c4ccccc4)c4ccccc4)cc13)OC(c1ccc(C)cc1)(c1ccc(N(C)c3ccc(C)cc3)cc1)C=C2 (stereo not drawn) [Example 2] | 1.75 | 1.22 | – | –
CCCC1(CCC)c2ccccc2-c2c1c1c(c3cc(OC)c(-c4ccc(OC)cc4OC)cc23)OC(c2ccc(N(C)c3ccccc3)cc2)(c2ccc(OC)c(F)c2)C=C1 (stereo not drawn) [Example 7] | 1.65 | 1.17 | – | 23°C color fading half-life ([1]; listed as Formula (55)): 1.67 min
CCCCN(c1ccccc1)c1ccc(C2(c3ccc(C)cc3)C=Cc3c4c(c5cc(N6CCOCC6)c(OC)cc5c3O2)-c2ccccc2C4(CC)CC)cc1 (stereo not drawn) [Example 10] | 2.75 | – | 2.15 | 23°C color fading half-life ([3]; listed as Formula (62)): 2.13 min; 23°C color fading half-life ([1]; listed as Formula (62)): 2.72 min
CCCOc1ccc(C2(c3ccc(N(CC(F)(F)F)c4ccccc4)cc3)C=Cc3c4c(c5ccccc5c3O2)-c2ccccc2C42CCCCCCC2)cc1 (stereo not drawn) [Example 9] | – | 0.6 | – | –
COc1ccc(N(C)c2ccc(C3(c4ccc(CCO[Si](C)(C)CC[Si](O[Si](C)(C)C)(O[Si](C)(C)C)O[Si](C)(C)C)cc4)C=Cc4c5c(c6cc(N(C)c7ccccc7)c(OC)cc6c4O3)-c3ccc(C(F)(F)F)cc3C53CCC(C)(C)CC3)cc2)cc1 (stereo not drawn) [Example 60] | – | – | 0.7 | 23°C color fading half-life ([3]; listed as Formula (121)): 0.717 min
CCCc1ccc(C2(c3ccc(N(C)c4ccccc4)cc3)C=Cc3c4c(c5cc(Sc6c(C)cccc6C)c(OC)cc5c3O2)-c2ccccc2C42CC(C)(C)CC(C)(C)C2)cc1 (stereo not drawn) [Example 5] | 1.13 | – | – | 23°C color fading half-life ([1]; listed as Formula (51)): 1.12 min
CCC1(CC)CCC2(CC1)c1cc(OC(F)(F)F)ccc1-c1c2c2c(c3cc(OC)ccc13)OC(c1ccc(N(C)c3ccccc3)cc1)(c1ccc(OC)c(C)c1)C=C2 (stereo not drawn) [Example 16] | 1.13 | 0.8 | – | –
